Assay results as given in publication PMC4931317, “UtpA and UtpB chaperone nascent pre-ribosomal RNA and U3 snoRNA to initiate eukaryotic ribosome assembly” (Nature Communications, 2016).
These are yes or no findings as the source states them, for the method shown. For some assays here: In cells and extracts the contact can be indirect. Some entries that bind do so weakly or less than the wild type. For some assays here: Sequences can lack the tags named with a protein. Each block holds one molecule with its values, some of them ahead of it.

How the values were obtained:
[1] = molecular target: T1, Utp6/Utp18 heterodimer (recombinant) (S. cerevisiae) (UniProt Q02354+P40362); test: pull-down; His-tagged Utp6, alone or co-expressed with Utp18, as bait on Nickel Sepharose; proteins 1 μM, on ice, 50 mM Hepes-NaOH pH 7.7, 300 mM NaCl, 70 mM imidazole; eluted with 3C protease; Coomassie-stained SDS-PAGE; both purified
T1 sequence 1: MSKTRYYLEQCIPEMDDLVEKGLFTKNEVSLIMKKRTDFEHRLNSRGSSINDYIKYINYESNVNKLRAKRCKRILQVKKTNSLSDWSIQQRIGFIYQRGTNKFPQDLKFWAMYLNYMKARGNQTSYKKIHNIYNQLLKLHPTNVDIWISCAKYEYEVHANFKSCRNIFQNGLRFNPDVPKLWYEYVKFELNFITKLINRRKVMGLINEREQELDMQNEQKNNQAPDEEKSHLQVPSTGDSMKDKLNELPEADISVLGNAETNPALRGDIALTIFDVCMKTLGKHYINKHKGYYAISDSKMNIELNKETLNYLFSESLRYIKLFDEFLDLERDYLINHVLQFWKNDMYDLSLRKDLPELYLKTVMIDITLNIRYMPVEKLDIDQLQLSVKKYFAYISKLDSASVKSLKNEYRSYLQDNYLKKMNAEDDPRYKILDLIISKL
T1 sequence 2: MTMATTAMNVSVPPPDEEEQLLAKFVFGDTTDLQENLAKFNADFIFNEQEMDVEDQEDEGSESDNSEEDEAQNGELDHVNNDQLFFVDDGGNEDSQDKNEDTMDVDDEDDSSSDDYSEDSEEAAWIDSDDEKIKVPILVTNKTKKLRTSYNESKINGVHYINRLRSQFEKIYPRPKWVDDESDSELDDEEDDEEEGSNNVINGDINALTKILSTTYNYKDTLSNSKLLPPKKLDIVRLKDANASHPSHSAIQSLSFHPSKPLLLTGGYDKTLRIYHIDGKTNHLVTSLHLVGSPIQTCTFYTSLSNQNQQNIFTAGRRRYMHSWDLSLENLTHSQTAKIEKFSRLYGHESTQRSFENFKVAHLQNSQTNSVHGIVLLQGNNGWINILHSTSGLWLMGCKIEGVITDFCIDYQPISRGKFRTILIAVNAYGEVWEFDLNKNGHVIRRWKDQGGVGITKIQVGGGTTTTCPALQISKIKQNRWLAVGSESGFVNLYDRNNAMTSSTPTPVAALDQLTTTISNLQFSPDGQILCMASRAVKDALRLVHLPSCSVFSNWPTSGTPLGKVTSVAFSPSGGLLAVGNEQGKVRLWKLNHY

[2] = molecular target: T1, Utp6/Utp18 heterodimer (recombinant) (S. cerevisiae); test: SEC; 2 μM UtpBΔUtp6ΔUtp18 injected alone, with 4 μM Utp6/Utp18 or with 4 μM Utp6; Superose 6 Increase, 50 mM HEPES-NaOH pH 7.7, 300 mM NaCl, 1 mM EDTA; both purified
[3] = molecular target: T2, His-tagged Utp6 (recombinant) (S. cerevisiae) (UniProt Q02354); test: pull-down; His-tagged Utp6, alone or co-expressed with Utp18, as bait on Nickel Sepharose; proteins 1 μM, on ice, 50 mM Hepes-NaOH pH 7.7, 300 mM NaCl, 70 mM imidazole; eluted with 3C protease; Coomassie-stained SDS-PAGE; both purified
T2 sequence: T1 sequence 1

[4] = molecular target: T3, His14-3C-Utp21 (recombinant) (S. cerevisiae) (UniProt Q06078); test: pull-down; Utp6/Utp18/Utp21/Utp1 co-expressed in E. coli; tandem affinity purification via His14-3C-Utp21 and mCherry-3C-Utp6; 3C protease elution; SDS-PAGE
T3 sequence: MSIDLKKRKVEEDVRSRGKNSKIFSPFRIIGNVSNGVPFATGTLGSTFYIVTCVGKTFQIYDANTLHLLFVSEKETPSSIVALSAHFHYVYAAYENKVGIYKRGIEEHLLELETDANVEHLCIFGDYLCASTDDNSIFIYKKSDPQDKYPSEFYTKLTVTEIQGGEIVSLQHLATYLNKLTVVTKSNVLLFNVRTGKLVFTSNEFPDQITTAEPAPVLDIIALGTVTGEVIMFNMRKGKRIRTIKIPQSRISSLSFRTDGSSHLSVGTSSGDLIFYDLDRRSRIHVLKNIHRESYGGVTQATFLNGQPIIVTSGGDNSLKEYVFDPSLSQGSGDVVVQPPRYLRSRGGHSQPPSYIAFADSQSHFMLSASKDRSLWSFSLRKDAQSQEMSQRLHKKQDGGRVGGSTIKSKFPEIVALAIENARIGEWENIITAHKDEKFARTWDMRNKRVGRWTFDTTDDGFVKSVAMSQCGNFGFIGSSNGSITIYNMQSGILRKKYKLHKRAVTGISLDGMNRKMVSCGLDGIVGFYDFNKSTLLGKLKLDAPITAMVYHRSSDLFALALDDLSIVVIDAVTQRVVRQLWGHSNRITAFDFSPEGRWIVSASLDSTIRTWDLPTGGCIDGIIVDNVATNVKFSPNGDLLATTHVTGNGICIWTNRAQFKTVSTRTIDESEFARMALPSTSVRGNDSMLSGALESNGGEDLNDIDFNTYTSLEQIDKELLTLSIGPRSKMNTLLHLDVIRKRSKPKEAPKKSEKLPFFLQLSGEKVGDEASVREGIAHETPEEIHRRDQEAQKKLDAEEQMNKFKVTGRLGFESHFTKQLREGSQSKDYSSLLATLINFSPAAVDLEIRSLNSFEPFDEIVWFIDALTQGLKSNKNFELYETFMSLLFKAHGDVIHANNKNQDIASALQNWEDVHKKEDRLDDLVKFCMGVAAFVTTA

[5] = molecular target: T4, mCherry-3C-Utp6 (recombinant) (S. cerevisiae) (UniProt Q02354); test: as above
T4 sequence: T1 sequence 1

[6] = molecular target: T5, StrepII-Sumo-Utp21 (recombinant) (S. cerevisiae) (UniProt Q06078); test: cross-linking; DSS (0.2, 0.4 and 0.8 mM, H12/D12) cross-linking of SEC-purified recombinant UtpBΔUtp6ΔUtp18, 0.2 mg/ml, room temperature, 30 min, 50 mM HEPES-NaOH pH 7.7, 300 mM NaCl, 1 mM EDTA; cross-linked peptides found by mass spectrometry (pLink); both purified
T5 sequence: T3 sequence

[7] = molecular target: T6, His14-3C-Utp12 (recombinant) (S. cerevisiae) (UniProt Q12220); test: SEC; Utp12/Utp13/StrepII-Sumo-Utp21/Utp1 co-expressed in E. coli and purified by the His14 tag on Utp12; main peak fraction of the size-exclusion run; 50 mM HEPES-NaOH pH 7.6, 300 mM NaCl; both purified
T6 sequence: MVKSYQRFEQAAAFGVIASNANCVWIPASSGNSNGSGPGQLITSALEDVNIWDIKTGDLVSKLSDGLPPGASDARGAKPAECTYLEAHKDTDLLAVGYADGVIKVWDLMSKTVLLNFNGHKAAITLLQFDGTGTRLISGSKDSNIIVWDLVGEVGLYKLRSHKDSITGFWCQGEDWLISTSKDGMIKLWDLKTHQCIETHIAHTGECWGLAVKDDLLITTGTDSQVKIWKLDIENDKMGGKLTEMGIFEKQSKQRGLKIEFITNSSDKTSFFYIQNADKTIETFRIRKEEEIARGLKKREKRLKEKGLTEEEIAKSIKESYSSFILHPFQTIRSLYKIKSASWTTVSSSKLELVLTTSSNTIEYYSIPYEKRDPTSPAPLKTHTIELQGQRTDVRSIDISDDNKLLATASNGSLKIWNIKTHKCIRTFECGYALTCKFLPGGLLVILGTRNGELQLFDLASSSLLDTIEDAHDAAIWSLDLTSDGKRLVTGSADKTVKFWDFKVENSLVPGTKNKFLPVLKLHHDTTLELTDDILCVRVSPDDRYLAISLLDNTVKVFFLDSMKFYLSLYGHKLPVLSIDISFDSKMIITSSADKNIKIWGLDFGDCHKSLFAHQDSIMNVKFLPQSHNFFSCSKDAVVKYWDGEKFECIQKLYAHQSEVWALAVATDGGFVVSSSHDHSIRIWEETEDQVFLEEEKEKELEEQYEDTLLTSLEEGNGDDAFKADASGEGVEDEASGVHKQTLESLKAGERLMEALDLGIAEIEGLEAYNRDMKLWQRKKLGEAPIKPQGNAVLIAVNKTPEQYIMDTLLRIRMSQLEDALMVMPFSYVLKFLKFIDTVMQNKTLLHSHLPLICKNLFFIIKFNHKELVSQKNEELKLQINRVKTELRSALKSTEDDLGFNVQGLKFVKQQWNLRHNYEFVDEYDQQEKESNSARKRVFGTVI

binding [1]: binds
binding [2]: binds
Molecule: UtpBΔUtp6ΔUtp18 (recombinant Utp12/Utp13/Utp21/Utp1 heterotetramer) (from UniProt Q12220 1-943; Q05946 1-817; Q06078 1-939; P25635 1-923) (complex)

binding [3]: binds
binding [4]: binds
binding [5]: binds
B1: Utp18 (recombinant) (protein, UniProt P40362 1-594)
chain: T1 sequence 2

binding [6]: binds
binding [7]: binds
binding [4]: binds
B2: Utp1 (recombinant) (protein, UniProt P25635 1-923)
chain: MKSDFKFSNLLGTVYRQGNITFSDDGKQLLSPVGNRVSVFDLINNKSFTFEYEHRKNIAAIDLNKQGTLLISIDEDGRAILVNFKARNVLHHFNFKEKCSAVKFSPDGRLFALASGRFLQIWKTPDVNKDRQFAPFVRHRVHAGHFQDITSLTWSQDSRFILTTSKDLSAKIWSVDSEEKNLAATTFNGHRDYVMGAFFSHDQEKIYTVSKDGAVFVWEFTKRPSDDDDNESEDDDKQEEVDISKYSWRITKKHFFYANQAKVKCVTFHPATRLLAVGFTSGEFRLYDLPDFTLIQQLSMGQNPVNTVSVNQTGEWLAFGSSKLGQLLVYEWQSESYILKQQGHFDSTNSLAYSPDGSRVVTASEDGKIKVWDITSGFCLATFEEHTSSVTAVQFAKRGQVMFSSSLDGTVRAWDLIRYRNFRTFTGTERIQFNCLAVDPSGEVVCAGSLDNFDIHVWSVQTGQLLDALSGHEGPVSCLSFSQENSVLASASWDKTIRIWSIFGRSQQVEPIEVYSDVLALSMRPDGKEVAVSTLKGQISIFNIEDAKQVGNIDCRKDIISGRFNQDRFTAKNSERSKFFTTIHYSFDGMAIVAGGNNNSICLYDVPNEVLLKRFIVSRNMALNGTLEFLNSKKMTEAGSLDLIDDAGENSDLEDRIDNSLPGSQRGGDLSTRKMRPEVRVTSVQFSPTANAFAAASTEGLLIYSTNDTILFDPFDLDVDVTPHSTVEALREKQFLNALVMAFRLNEEYLINKVYEAIPIKEIPLVASNIPAIYLPRILKFIGDFAIESQHIEFNLIWIKALLSASGGYINEHKYLFSTAMRSIQRFIVRVAKEVVNTTTDNKYTYRFLVSTDGSMEDGAADDDEVLLKDDADEDNEENEENDVVMESDDEEGWIGFNGKDNKLPLSNENDSSDEEENEKELP
